Consider one molecule from paper doi:10.1101/2025.08.09.669456 (bioRxiv, 2025).

In experiment [1] the target is complement C3 (human, UniProt P01024 23-667; P01024 part only, Cys1010–Gln1013 thioester). The experiment can be described thus: cryo-EM structure.
Experiment [2] addresses complement C3b (human, UniProt P01024 23-667; P01024 part only). The experiment can be described thus: cryo-EM structure.

B1: factor B fragment Bb (S699A) (enzyme, human, UniProt P00751 260-764, looked up)
chain: KIVLDPSGSMNIYLVLDGSDSIGASNFTGAKKCLVNLIEKVASYGVKPRYGLVTYATYPKIWVKVSEADSSNADWVTKQLNEINYEDHKLKSGTNTKKALQAVYSMMSWPDDVPPEGWNRTRHVIILMTDGLHNMGGDPITVIDEIRDLLYIGKDRKNPREDYLDVYVFGVGPLVNQVNINALASKKDNEQHVFKVKDMENLEDVFYQMIDESQSLSLCGMVWEHRKGTDYHKQPWQAKISVIRPSKGHESCMGAVVSEYFVLTAAHCFTVDDKEHSIKVSVGGEKRDLEIEVVLFHPNYNINGKKEAGIPEFYDYDVALIKLKNKLKYGQTIRPICLPCTEGTTRALRLPPTTTCQQQKEELLPAQDIKALFVSEEEKKLTRKEVYIKNGDKKGSCERDAQYAPGYDKVKDISEVVTPRFLCTGGVSPYADPNTCRGDAGGPLIVHKRSRFIQVGVISWGVVDVCKNQKRQKQVPAHARDFHINLFQVLPWLKEKLQDEDLGFL
For the molecule B1, the binding result in experiment [1] and in experiment [2] was “binds” throughout.
